Not every entry of the source has a single result; some have several. This list holds those alone. The source may hold further records. The records of an entry read as repeated measurements on other runs, samples or individuals.
Molecular target: LFA-1 disulfide mutant #8 (αL Q1063C / β2 N678C) on 293T cells (UniProt P20701)
Test: flow cytometry (FACS), LFA-1 on transfected 293T cells

Sequence of UniProt P20701 (P20701 26-1170 Q1088C, chain 1 of 2): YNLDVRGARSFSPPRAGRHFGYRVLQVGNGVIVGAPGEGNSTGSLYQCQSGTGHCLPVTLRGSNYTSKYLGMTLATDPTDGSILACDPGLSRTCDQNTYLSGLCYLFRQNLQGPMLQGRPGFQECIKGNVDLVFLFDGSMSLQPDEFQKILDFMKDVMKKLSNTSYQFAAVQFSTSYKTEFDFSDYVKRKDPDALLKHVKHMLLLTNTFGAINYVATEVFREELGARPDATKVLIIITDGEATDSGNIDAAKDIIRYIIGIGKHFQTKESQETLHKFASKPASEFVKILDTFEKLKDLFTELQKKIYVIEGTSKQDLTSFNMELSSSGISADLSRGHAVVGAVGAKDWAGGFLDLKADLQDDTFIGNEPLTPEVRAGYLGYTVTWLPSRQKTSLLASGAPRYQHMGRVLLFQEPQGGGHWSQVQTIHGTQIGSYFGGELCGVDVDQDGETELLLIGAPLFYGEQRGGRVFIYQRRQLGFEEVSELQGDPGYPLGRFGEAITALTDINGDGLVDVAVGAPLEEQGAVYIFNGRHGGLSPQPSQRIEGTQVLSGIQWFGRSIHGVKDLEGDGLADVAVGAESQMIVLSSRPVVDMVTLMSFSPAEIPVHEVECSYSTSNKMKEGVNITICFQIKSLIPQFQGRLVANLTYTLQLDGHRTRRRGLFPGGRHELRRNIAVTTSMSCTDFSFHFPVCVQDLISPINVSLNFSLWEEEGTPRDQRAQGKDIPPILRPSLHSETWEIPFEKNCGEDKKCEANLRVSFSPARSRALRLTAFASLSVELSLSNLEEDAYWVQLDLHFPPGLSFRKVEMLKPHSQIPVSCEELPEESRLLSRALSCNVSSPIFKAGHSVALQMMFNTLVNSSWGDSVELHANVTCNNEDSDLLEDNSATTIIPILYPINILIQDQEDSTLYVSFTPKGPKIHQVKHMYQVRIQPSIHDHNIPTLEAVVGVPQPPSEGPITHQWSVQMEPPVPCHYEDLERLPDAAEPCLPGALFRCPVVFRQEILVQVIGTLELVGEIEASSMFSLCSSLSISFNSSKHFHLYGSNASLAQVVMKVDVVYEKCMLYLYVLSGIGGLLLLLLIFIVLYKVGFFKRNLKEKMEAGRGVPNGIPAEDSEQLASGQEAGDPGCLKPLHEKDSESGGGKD
Sequence of UniProt P20701 (P05107 23-769 N700C, chain 2 of 2, further chain): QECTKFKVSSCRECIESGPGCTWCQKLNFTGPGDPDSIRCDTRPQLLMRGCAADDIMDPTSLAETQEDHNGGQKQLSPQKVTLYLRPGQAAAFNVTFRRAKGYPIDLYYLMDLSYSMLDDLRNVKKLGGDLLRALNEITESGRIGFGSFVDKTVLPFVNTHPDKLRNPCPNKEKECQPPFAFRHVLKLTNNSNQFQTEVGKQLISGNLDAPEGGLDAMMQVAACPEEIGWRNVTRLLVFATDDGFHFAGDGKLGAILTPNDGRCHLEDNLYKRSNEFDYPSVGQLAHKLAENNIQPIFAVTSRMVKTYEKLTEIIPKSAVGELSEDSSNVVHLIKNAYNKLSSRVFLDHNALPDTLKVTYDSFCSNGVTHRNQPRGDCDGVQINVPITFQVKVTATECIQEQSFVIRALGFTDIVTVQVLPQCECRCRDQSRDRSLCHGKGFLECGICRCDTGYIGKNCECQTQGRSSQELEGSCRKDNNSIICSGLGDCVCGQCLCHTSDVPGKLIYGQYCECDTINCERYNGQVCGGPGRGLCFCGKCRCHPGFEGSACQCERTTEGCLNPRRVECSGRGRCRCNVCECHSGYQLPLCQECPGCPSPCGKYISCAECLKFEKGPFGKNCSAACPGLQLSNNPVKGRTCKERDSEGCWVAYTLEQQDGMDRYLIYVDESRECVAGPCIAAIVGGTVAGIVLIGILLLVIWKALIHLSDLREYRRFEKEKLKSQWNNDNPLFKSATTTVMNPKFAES

Mean value normalized with expression level (MHM24): 0.021 and 0.082 [columns of one line]
Substance: KIM127 (antibody)

From patent US20160084825A1
